Data reported in PubChem BioAssay AID485281 (National Center for Advancing Translational Sciences (NCATS), 2010).
In all, about 350,000 compounds went through this assay and about 260 (0.074%) were called active. The shares of active, inactive and inconclusive entries below differ from those in the screen. Calls come from the whole dose curve; as a rule, active = well fitted inhibition curve with a large enough effect; inconclusive = small, poorly fitted or top-dose-only effect; inactive = no such curve, though single readings can be large or run the other way. Potencies of inconclusive entries are doubtful fits and often do not repeat.

These compounds were tested against Ferritin light chain (Equus caballus) (UniProt P02791) (assay: qHTS Assay for Identification of Novel General Anesthetics). Conditions: apoferritin/1-aminoanthracene competitive binding, fluorescence; activity change, negative = displacement: at 77.5 µM (top of the series).
Chain of UniProt P02791 (P02791 whole entry, looked up): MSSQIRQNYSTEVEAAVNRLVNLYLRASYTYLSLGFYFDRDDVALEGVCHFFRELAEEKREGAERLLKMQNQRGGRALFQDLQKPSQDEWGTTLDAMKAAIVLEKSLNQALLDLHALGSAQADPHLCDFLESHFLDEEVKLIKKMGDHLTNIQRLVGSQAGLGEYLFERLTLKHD
Summary of the method: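 Concentration-response curves derived by four-parameter Hill fitting of normalized fluorescence, where compounds displaced 1-AMA from 10 uM horse apoferritin following a brief 10 min room-temperature incubation; propofol titration acted as positive control.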
% is set by controls: 0 for no effect and ±100 for the full control effect; potency is the fitted concentration of half-maximal effect; tags give direction and shape of the fitted curve.
Note: nearly all actives have a fitted effect of over 20% in size.

SMILES | Potency | activity change, negative = displacement
COc1ccc(C(=O)N2N=C(c3ccccc3)CC2(O)C(F)(F)F)cc1 (stereo unspecified) | inconclusive: 15.8 µM [inhibitor, partial curve] | 
O=C(Cc1ccccc1[N+](=O)[O-])Nc1ccc(S(=O)(=O)N2CCCC2)cc1 | inconclusive: 39.8 µM [inhibitor, single point] | 
N#Cc1nc(COc2ccc(-c3ccccc3)cc2)oc1NCCCN1CCOCC1 |  | inactive: 1.34%
Cc1ccc(NC(=O)c2cc(S(=O)(=O)N3CCCc4ccccc43)ccc2F)cc1F | inconclusive: 10 µM [inhibitor, partial curve] | 
COc1cccc(CNC(=O)c2ccc(S(=O)(=O)N3CCCC3)cc2)c1 | inconclusive: 28.2 µM [inhibitor, partial curve] | 
Cc1ccc(CCNC(=O)c2nc(CS(=O)(=O)c3ccc(Cl)cc3)no2)cc1 | inconclusive: 20 µM [inhibitor, single point] | 
Oc1ccccc1/C=N/Nc1nc2ccccc2o1 |  | inactive: 7.58%
COc1ccc(C(=O)N(C)Cc2ccccc2)cc1Br | inconclusive: 22.4 µM [inhibitor, partial curve] | 
c1cncc(-c2noc(C34CC5CC(CC(C5)C3)C4)n2)c1 | inconclusive: 28.2 µM [inhibitor, single point] | 
Cc1cc(C)c(S(=O)(=O)NCc2ccc3c(c2)OCO3)cc1C |  | inactive: -19.1%
COc1cc(/C=C2\CC/C(=C\c3ccc(OCCO)c(OC)c3)C2=O)ccc1OCCO | inconclusive: 15.8 µM [inhibitor, partial curve] | 
CC(C)Oc1ccc(CNC(=O)Nc2ccc3c(c2)N(C)C(=O)c2ccccc2S3)cc1 |  | inactive: -3.2%
Cc1[nH]n(-c2ccccc2)c(=O)c1/C=N/N1C(=O)c2cccc3cccc(c23)C1=O |  | inactive: -17%
CC(C)c1nnc(NC(=O)CCC(=O)N2CCC(Cc3ccccc3)CC2)s1 | inconclusive: 35.5 µM [inhibitor, partial curve] | 
COc1ccccc1/C=C(/C(=O)OCC(=O)NCc1ccccc1)c1ccccc1 | inconclusive: 12.6 µM [inhibitor, partial curve] | 
Cc1ccc(NC(=O)c2c(C(=O)Nc3ccccc3)sc3nc(C)cc(=O)n23)c(C)c1 | inconclusive: 31.6 µM [inhibitor, single point] | 
CCOC(=O)C1C(=O)C=C(c2ccc(C)cc2)CC1c1ccccc1 (stereo unspecified) | inconclusive: 35.5 µM [inhibitor, partial curve] | 
CCN(CC)C(=O)c1ccc(-c2nnc(Nc3cccc(O)c3)c3ccccc23)cc1 |  | inactive: -14.3%
CCc1ccc(C(=O)COC(=O)c2cc([N+](=O)[O-])ccc2NCCO)cc1 | inconclusive: 50.1 µM [inhibitor, single point] | 
CN(C)S(=O)(=O)c1ccc(C(=O)OCn2nnc3ccccc3c2=O)cc1 | inconclusive: 28.2 µM [inhibitor, partial curve] | 
O=C(c1cc2ccccc2o1)N1CCN(C/C=C/c2ccccc2)CC1 | inconclusive: 44.7 µM [inhibitor, partial curve] | 
O=C(OCc1ccc(F)cc1)c1cc(=O)c2ccccc2o1 |  | inactive: 4.94%

SMILES | Potency | activity change, negative = displacement
Cc1ccc(C)n1-c1ccc(C(=O)NC2CCN(Cc3ccccc3)CC2)cc1 |  | inactive: 4.68%
Cc1ccc(SCC(=O)NC(=O)c2ccc(S(=O)(=O)N(C)C)cc2)cc1C | inconclusive: 31.6 µM [inhibitor, partial curve] | 
COc1ccc(Cl)cc1NC(=O)CSc1c2c(nc3ccccc13)CCC2 | inconclusive: 31.6 µM [inhibitor, partial curve] | 
O=C(Nc1nnc(N2CCCCCC2)s1)Nc1ccccc1C(F)(F)F | inconclusive: 10 µM [inhibitor, partial curve] | 
Cc1cc(Cl)ccc1NC(=S)N(CCCN1CCOCC1)Cc1cccs1 | inconclusive: 56.2 µM [inhibitor, single point] | 
CC(C)c1ccc(/C=C/c2[nH]c(=O)[nH]c(=O)c2[N+](=O)[O-])cc1 |  | inactive: -8.5%
COc1ccccc1-c1ccc(SCc2ccc([N+](=O)[O-])cc2)nn1 | inconclusive: 31.6 µM [inhibitor, partial curve] | 
O=C(OCC1CCCO1)c1ccc2c(c1)N(Cc1cccc(Cl)c1)C(=O)c1ccccc1S2(=O)=O (stereo unspecified) | inconclusive: 14.1 µM [inhibitor, partial curve] | 
O=C(CN1C(=O)c2ccccc2S1(=O)=O)NCCSCc1c(F)cccc1Cl | inconclusive: 56.2 µM [inhibitor, single point] | 
CC1(C)CC2CC(C)(CN2C(=O)COC(=O)CNC(=O)c2ccc(Cl)c(Cl)c2)C1 (stereo unspecified) | inconclusive: 14.1 µM [inhibitor, partial curve] | 
COC(=O)c1c(C)sc(-c2c(-c3ccc4c(c3)OCCO4)[nH]c3[nH]c(=O)[nH]c(=O)c23)c1O | inconclusive: 28.2 µM [inhibitor, partial curve] | 
CCOc1ccc(-c2cc3nc(C4CCN(C(=O)OC(C)(C)C)CC4)c(C(=O)Nc4ccc(C)cc4Cl)cn3n2)cc1 | inconclusive: 7.08 µM [inhibitor, partial curve] | 
CCOc1ccc(/C=C/C(=O)c2ccccc2)cc1 |  | inactive: -4.96%
O=C(O)CCC(=O)Nc1ccccc1C(=O)Nc1ccccc1 |  | inactive: -7.82%
Cc1c(C(=O)N2CCCc3ccccc32)oc2ccccc12 | inconclusive: 50.1 µM [inhibitor, single point] | 
CCCc1ccc(-c2cc(NC(=O)CSc3n[nH]c(N)n3)n(-c3ccccc3)n2)cc1 | inconclusive: 31.6 µM [inhibitor, partial curve] | 
Cc1ccc(Nc2c([N+](=O)[O-])ccc3nonc23)cc1C | inconclusive: 56.2 µM [inhibitor, single point] | 
CN(Cc1ccc(F)cc1)S(=O)(=O)c1nnc(NC(=O)c2ccc(F)cc2)s1 |  | inactive: -11.5%
COc1ccc(C(=O)n2nc(C)cc2Nc2ccccc2)cc1 | inconclusive: 28.2 µM [inhibitor, single point] | 
O=c1cc(-c2ccc(O)c(O)c2)oc2cc(O)c(C3OC(CO)C(O)C(O)C3O)c(O)c12 (stereo unspecified) |  | inactive: -12.3%
Cn1c(-c2ccc(C=O)s2)nc2ccccc21 |  | inactive: 861%
O=C1C2C3C=CC(C4CC34)C2C(=O)N1c1ccc2c(c1)OCO2 (stereo unspecified) | inconclusive: 44.7 µM [inhibitor, single point] | 

SMILES | Potency | activity change, negative = displacement
O=Nc1c(O)n(Cc2cccc(C(F)(F)F)c2)c2ccccc12 | inconclusive: 35.5 µM [inhibitor, partial curve] | 
C=C1C(=O)O[C@@H]2[C@H]3O[C@]3(C)CC/C=C(\C)CC[C@@H]12 | inconclusive: 25.1 µM [inhibitor, partial curve] | 
CCCNC(=S)Nc1ccc(Nc2ccccc2)cc1 | inconclusive: 28.2 µM [inhibitor, single point] | 
Cc1ccc(C(C(=O)NC2CCCC2)N(Cc2cccs2)C(=O)CNC(=O)c2cccs2)o1 (stereo unspecified) | inconclusive: 14.1 µM [inhibitor, partial curve] | 
ClC1(Cl)CC1CSc1ncn[nH]1 (stereo unspecified) | inconclusive: 25.1 µM [inhibitor, partial curve] | 
CCOc1ccc(S(=O)(=O)N2CC(=O)Nc3ccccc32)cc1 |  | inactive: 4.49%
CCC(=O)NC(=S)NNC(=O)c1ccc(O)cc1 | inconclusive: 17.8 µM [inhibitor, partial curve] | 
O=S(=O)(Nc1cccc(-c2ccc(N3CCCC3)nn2)c1)c1ccc(F)cc1F | inconclusive: 35.5 µM [inhibitor, single point] | 
Cc1nc(-c2cccc(S(=O)(=O)N3CCC(C)CC3)c2)cs1 |  | inactive: -17.5%
COC(=O)c1ccc(COC(=O)CCC(=O)c2cccs2)cc1 | inconclusive: 50.1 µM [inhibitor, single point] | 
CC(=O)c1cccc(CN2CCN(CCc3ccccc3)C(CCO)C2)c1 (stereo unspecified) |  | inactive: -8.96%
CCOC(=O)c1c(-c2ccc(C)o2)csc1NC(=O)COC(=O)c1ccc(NC(N)=O)cc1 | inconclusive: 17.8 µM [inhibitor, partial curve] | 
COc1ccc(Cn2ccnc2SCC(=O)Nc2cc(C(F)(F)F)ccc2Cl)cc1 | inconclusive: 11.2 µM [inhibitor, full curve] | 
COc1cccc(CNC(=O)c2oc3ccc4c(c3c2C)C(=O)CC(C)(C)O4)c1OC | inconclusive: 35.5 µM [inhibitor, partial curve] | 
CCOC(=O)c1c(C)[nH]c(C(=O)CN2C(=O)C(=O)N(CC(C)C)C2=O)c1C | inconclusive: 35.5 µM [inhibitor, partial curve] | 
Cc1cc(C#N)c(C)n1-c1cc(C(F)(F)F)ccc1N1CCOCC1 | inconclusive: 31.6 µM [inhibitor, partial curve] | 
Cc1ccc(C(=O)CSc2cnc3ccccc3n2)cc1C | inconclusive: 25.1 µM [inhibitor, single point] | 
O=C(Nc1ccc(N2CCCC2)c(Cl)c1)c1ccc([N+](=O)[O-])o1 | inconclusive: 35.5 µM [inhibitor, single point] | 
CN(NC(=O)c1cccc(Cl)c1)c1nc(-c2ccccc2)nnc1C(F)(F)F | inconclusive: 3.16 µM [inhibitor, full curve, poor fit] | 
COc1ccc(NS(=O)(=O)c2ccc3c(c2)CC(C)N3C(C)=O)c(OC)c1 (stereo unspecified) |  | inactive: 1.91%
Cc1onc(-c2c(F)cccc2Cl)c1C(=O)OCC(=O)c1c(N)n(C)c(=O)n(C)c1=O | inconclusive: 22.4 µM [inhibitor, partial curve] | 
CC(=NCCCn1ccnc1)c1c(-c2ccccc2)[nH]n(-c2nc3ccccc3s2)c1=O | inconclusive: 44.7 µM [inhibitor, single point] | 
